In assay [1] the target is T1, P1243_AMBAM (Amblyomma americanum, UniProt A0A0C9S461 26-123).
T1 sequence: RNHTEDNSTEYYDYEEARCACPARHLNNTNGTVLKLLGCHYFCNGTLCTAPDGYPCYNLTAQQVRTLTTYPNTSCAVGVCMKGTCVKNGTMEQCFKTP
In words: BLI. In general terms: BLI is a label-free optical method that tracks binding on a fibre tip over time.

In assay [2] the target is T1, P1243_AMBAM. In words: BLI. This is another data set of the same source.
The target in assay [3] is T2, P1156_IXORI (Ixodes ricinus, UniProt V5HBW0 29-108).
T2 sequence: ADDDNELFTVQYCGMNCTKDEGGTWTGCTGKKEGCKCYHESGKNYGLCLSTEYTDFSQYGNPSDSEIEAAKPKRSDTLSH
In words: BLI [Cont.) C].

Assay [4] deals with T2, P1156_IXORI. Description: BLI.
Assay [5] addresses T2, P1156_IXORI. Description: BLI. The source holds these as a separate data set.

Like-named read-outs stand apart in the source and are kept apart here.

B1: CCL20_HUMAN (ligand)
chain: not shown
As to B1, the figures for the Kd in the assay with P1243_AMBAM [1] and with P1243_AMBAM [2] were 8.34 nM and 8.33 nM, respectively.

B2: CXCL8_HUMAN (ligand)
chain: not shown
In the case of B2, the Kd (commonly the constant that tells how readily two partners part at equilibrium) came out at 4.67 nM with P1156_IXORI [3] and 4.6 nM with P1156_IXORI [4].

B3: CXCL5_HUMAN (ligand)
chain: not shown
As for B3, the results for the equilibrium dissociation constant (Kd) in the assay with P1156_IXORI [3] and with P1156_IXORI [5] were 71.9 nM and 39.9 nM, respectively.
